Laboratory results reported in PMC6919601, “Identification of Plasmodium dipeptidyl aminopeptidase allosteric inhibitors by high throughput screening” (PLoS ONE, 2019).
About 230 (0.21%) of roughly 110,000 compounds showed an effect of 50% or more. The list shows a part of the results.

Target: DPAP1 (Plasmodium falciparum, UniProt Q8IIJ9)
Assay: primary screen, percent inhibition; read by cleavage of a fluorogenic dipeptide substrate; higher = more effect of the substance
Design: species or system P. falciparum D10 trophozoite lysates; single well
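Also: 30 min substrate incubation versus DMSO and 10 µM JCP410 controls.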

Sequence of DPAP1 (Q8IIJ9 whole entry, looked up): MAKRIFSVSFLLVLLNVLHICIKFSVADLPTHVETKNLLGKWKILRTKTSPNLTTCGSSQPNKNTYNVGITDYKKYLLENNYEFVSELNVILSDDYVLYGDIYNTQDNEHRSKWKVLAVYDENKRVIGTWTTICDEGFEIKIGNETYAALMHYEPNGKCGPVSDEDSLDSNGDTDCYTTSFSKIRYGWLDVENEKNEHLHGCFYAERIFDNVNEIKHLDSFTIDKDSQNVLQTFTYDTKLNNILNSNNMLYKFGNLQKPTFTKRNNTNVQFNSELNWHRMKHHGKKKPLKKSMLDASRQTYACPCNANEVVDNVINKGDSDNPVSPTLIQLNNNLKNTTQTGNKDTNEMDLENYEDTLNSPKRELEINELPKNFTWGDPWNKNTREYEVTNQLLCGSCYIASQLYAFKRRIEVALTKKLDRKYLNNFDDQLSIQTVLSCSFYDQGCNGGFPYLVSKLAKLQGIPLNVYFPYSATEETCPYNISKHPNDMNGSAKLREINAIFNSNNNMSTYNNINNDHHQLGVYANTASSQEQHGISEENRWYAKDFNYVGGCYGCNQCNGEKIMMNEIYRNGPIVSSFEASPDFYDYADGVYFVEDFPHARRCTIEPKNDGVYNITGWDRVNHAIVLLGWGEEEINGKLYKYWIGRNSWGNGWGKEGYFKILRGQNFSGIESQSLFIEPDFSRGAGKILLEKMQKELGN

Compound | % Inhibition @ 10 uM [%]
O=C1C(Cl)=C(Oc2ccccc2)C(=O)N1c1ccccc1 | 4.28
CC1=C(C(=O)Nc2ccc(C)cn2)C(c2cccc(Cl)c2)C2=C(O)CC(C)(C)CC2=N1 (stereo not shown) | -3.9
c1cnc2nc(-c3ccsc3)c(NC3CCCCC3)n2c1 | -2.16
COCCN1C(=O)c2ccccc2C(C(=O)NCc2ccco2)C1c1ccc(F)cc1 (stereo not shown) | 3.61
Cc1ccc(C2=NS(=O)(=O)N(C)C(C(=O)NCCc3ccccc3)=C2)cc1 | -4.68
COc1ccc(CN(C(=O)c2ccc(OCC(C)C)cc2)C2CCS(=O)(=O)C2)cc1OC (stereo not shown) | -3.13
CC1CCCCC1NC(=O)C(Cc1ccccc1)NS(=O)(=O)c1cccs1 (stereo not shown) | -4.16
CCC(C(=O)NC1CCCCC1C)n1nc(C)c2sc3ccccc3c2c1=O (stereo not shown) | -1.97
COc1cccc(C2c3[nH]c4ccccc4c3CC3C(=O)N(C)C(=S)N32)c1 (stereo not shown) | 6.43
Cc1ccccc1NC(=O)COc1ccccc1 | 4.75
O=C1/C(=C/c2ccc(Br)cc2)Sc2ccccc21 | 2.45
O=C(CSc1nc2ccccc2o1)Nc1cc(Cl)cc(Cl)c1 | 1.67
CCCS(=O)(=O)c1ncc(Cl)c(C(=O)N(Cc2ccc(C)cc2)C2CCS(=O)(=O)C2)n1 (stereo not shown) | -4.64
CCOc1ccccc1NC(=O)c1cccs1 | 0.526
Cc1ccc(COc2ccccc2C2C3=C(CCCC3=O)N(CC(=O)O)C3=C2C(=O)CCC3)cc1 | -1.55
COc1ccc(CCNS(=O)(=O)c2ccc(-c3cc(C)no3)cc2)cc1OC | 3.14
O=C(Nc1ccc(F)cc1F)c1cccc(Cl)c1 | -3.26
CC(NC(=O)c1ccc(-c2nn(C)c(=O)c3ccccc23)cc1)c1ccccc1 (stereo not shown) | -5.1
CCc1ccc(C2CC(c3cc(OC)c(OC)c(OC)c3)n3ncnc3N2)cc1 (stereo not shown) | 1.73
O=C(NCCCc1ccccc1)[C@@H](c1ccccc1)N1Cc2ccccc2C1=O | 1.26
CC1=C(C(=O)OCC(C)C)C(c2ccccc2)NC(=O)N1 (stereo not shown) | 3.18
CCC1NC2(C(=O)N(Cc3ccccc3F)c3ccccc32)C2C(=O)N(Cc3ccccc3)C(=O)C12 (stereo not shown) | -3.65
CCC(=O)Nc1nnc(S(=O)(=O)N(C)Cc2ccc(F)cc2)s1 | -4.94
Cc1cc(O)c(C2=NCCSC(c3ccsc3)C2)c(=O)o1 (stereo not shown) | 5.69
CC(=O)Nc1ccc(NC(=O)c2ccc(Cl)cc2)cc1 | 3.1

Compound | % Inhibition @ 10 uM [%]
CC1OC(C)C2Cc3ccccc3C2O1 (stereo not shown) | -9.31
CCOC(=O)N1CCN(C(=O)C2CCN(S(=O)(=O)CC)CC2)CC1 | 6.86
CCOC(=O)c1c(NC(=O)COc2cccc(C)c2)sc(C(C)=O)c1C | 22.5
Cc1ccc(-c2c(O)c(=O)/c2=N\C2CCC(C)CC2)cc1C (stereo not shown) | -0.00718
COCCNC(=O)C1CCN(c2nn3cc(-c4ccc(OC)cc4)nc3s2)CC1 | 5.85
O=C(CSc1nc2sc3c(c2c(=O)n1-c1ccc(F)cc1)CCCC3)N1CCOCC1 | -0.968
CCOCCCNC(=O)c1ccc2nc(N3CCOCC3)sc2c1 | 2.65
O=C(Nc1ncc(CN2CCOCC2)s1)C12C[C@H]3C[C@@H](C1)C[C@@H](C2)C3 | -0.0619
O=C(Nc1ccc(CN2CCOCC2)cc1)c1cccnc1 | 0.709
C=CCN1C(=O)N/C(=C/c2cn(CC(=O)Nc3ccc(C)cc3)c3ccccc23)C1=O | -1.17
COc1cc(C2C(C#N)=C(N)Oc3[nH]nc(C)c32)ccc1OCc1ccccc1 (stereo not shown) | 4.3
CCOc1cc(C2C(C#N)=C(N)OC3=C2C(=O)CC(c2ccccc2)C3)ccc1OC (stereo not shown) | 3.1
Cc1cccc(C)c1NC(=O)C1(N(C)C(=O)CN2C(=O)c3ccccc3C2=O)CCCC1 | 6.61
O=C(O)C1CCCN1C(=O)c1ccc(N2C(=O)C3C4C=CC(C4)C3C2=O)cc1 (stereo not shown) | -0.545
CCOC(=O)c1c(S(=O)(=O)NC(CC)CN2CCOCC2)c(C)n(C)c1C (stereo not shown) | 2.45
CCCCNC(=O)c1ccc2c(c1)c(C)c(C)n2CC | -6.25
O=C(CNC(=S)N(Cc1ccccc1)Cc1ccccc1F)N1CCC2(CC1)OCCO2 | -0.406
Cc1ccc2onc(CNC(=O)NC3CCCC(C)C3C)c2c1 (stereo not shown) | -7.1
CCOc1cccc(C(=O)Nc2sc(C)c(CC)c2C#N)c1 | 21.2
Cc1ccc(C2C(C#N)=C(N)OC3=C2C(=O)CCC3)cc1 (stereo not shown) | 0.67
COCCCN1C(=O)/C(=C\c2ccc(Cl)c(Cl)c2)C(C(=O)OC)=C1C | -3.4
Cc1ccccc1C1C2=C(O)CC(C)(C)CC2=Nc2ncnn21 (stereo not shown) | -1.62
O/N=C1\CCCc2c1[nH]c1ccc(Cl)cc21 | 0.247
O=c1n(-c2ccccc2)c(=O)n2n1C1C=CC2C2C=CC21 (stereo not shown) | 2.25
